Measured values as given in the supplement of paper PMC12217912.
The other results are listed elsewhere or left out. Sequences were assembled here from the parent chain. Values near 0.05 are background.

B1: TEV protease; numbered along this chain (parent)
chain: MGESLFKGPRDYNPISSSICHLTNESDGHTTSLYGIGFGPFIITNKHLFRRNNGTLVVQSLHGVFKVKDTTTLQQHLVDGRDMIIIRMPKDFPPFPQKLKFREPQREERICLVTTNFQTKSMSSMVSDTSCTFPSGDGIFWKHWIQTKDGQCGSPLVSTRDGFIVGIHSASNFTNTNNYFTSVPKNFMELLTNQEAQQWVSGWRLNADSVLWGGHKVFMVKPEEPFQPVKEATQL

Variants of: B1
Assay: raw area under fraction-flipped curve 0-4 h after induction (AUC4h, not background-subtracted), DNA-recorder readout of cleavage of the substrate (dimensionless); higher = more cleavage of the substrate by the protease variant
Details: temperature: 34 °C; time window: 0-4 h after rhamnose induction
Procedure: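 In vivo DNA recorder in E. coli TOP10(DE3) ΔrhaA at 34 °C. Each TEVp single-site mutant (parent TEVp 0) is paired with a single-site variant of the 7-mer TEVs (canonical ENLYFQ|S). The substrate sits between flexible linkers in a Bxb1-sfGFP-TEVs-SsrA fusion, so cleavage stabilises Bxb1 and speeds flipping of a recombination array, read by NGS. The value is the raw area under the fraction-flipped curve over 0-4 h after rhamnose induction (AUC4h), with ≥20 reads per time point. It is not background-subtracted; inactive controls average about 0.047.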
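Also: Bxb1 expression induced with 0.2% (w/v) L-rhamnose at OD600 near 0.5, cultures sampled hourly, flipped fraction per protease–substrate barcode pair counted by paired-end Illumina sequencing.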

Variant	area with substrate ENAYFQS	area with substrate ENCYFQS	area with substrate ENDYFQS	area with substrate ENEYFQS	area with substrate ENFYFQS	area with substrate ENGYFQS	area with substrate ENKYFQS	area with substrate ENMYFQS	area with substrate ENPYFQS	area with substrate ENQYFQS	area with substrate ENTYFQS	area with substrate ENVYFQS	area with substrate ENYYFQS	area with substrate ENHYFQS	area with substrate ENIYFQS	area with substrate ENNYFQS	area with substrate ENRYFQS	area with substrate ENSYFQS	area with substrate ENWYFQS
MGESLFKGPRDYNPISSSICHLTNESDGHTTSLYGIGFGPFIITNKHLFRRNNGTLVVQSPHGVFKVKDTTTLQQHLVDGRDMIIIRMPKDFPPFPQKLKFREPQREERICLVTTNFQTKSMSSMVSDTSCTFPSGDGIFWKHWIQTKDGQCGSPLVSTRDGFIVGIHSASNFTNTNNYFTSVPKNFMELLTNQEAQQWVSGWRLNADSVLWGGHKVFMVKPEEPFQPVKEATQL [L61P]	0.0543	0.0672	0.0613	0.0605	0.0595	0.0618	0.0533	0.0644	0.0538	0.0564	0.0554	0.0747	0.0415						
MGESLFKGPRDYNPISSSICHLTNESDGHTTSLYGIGFGPFIITNKHLFRRNNGTLVVQSRHGVFKVKDTTTLQQHLVDGRDMIIIRMPKDFPPFPQKLKFREPQREERICLVTTNFQTKSMSSMVSDTSCTFPSGDGIFWKHWIQTKDGQCGSPLVSTRDGFIVGIHSASNFTNTNNYFTSVPKNFMELLTNQEAQQWVSGWRLNADSVLWGGHKVFMVKPEEPFQPVKEATQL [L61R]	0.0617	0.0607	0.0622	0.062		0.0641	0.0638	0.0808	0.0612	0.0609	0.0633	0.0613		0.0668	0.127	0.062	0.0695	0.0562	
MGESLFKGPRDYNPISSSICHLTNESDGHTTSLYGIGFGPFIITNKHLFRRNNGTLVVQSLHSVFKVKDTTTLQQHLVDGRDMIIIRMPKDFPPFPQKLKFREPQREERICLVTTNFQTKSMSSMVSDTSCTFPSGDGIFWKHWIQTKDGQCGSPLVSTRDGFIVGIHSASNFTNTNNYFTSVPKNFMELLTNQEAQQWVSGWRLNADSVLWGGHKVFMVKPEEPFQPVKEATQL [G63S]	0.0737	0.0523		0.0463	0.0657	0.0707	0.0683	0.0619	0.0537	0.0598	0.0523	0.067	0.0535		0.0884	0.0481	0.0561	0.0604	
MGESLFKGPRDYNPISSSICHLTNESDGHTTSLYGIGFGPFIITNKHLFRRNNGTLVVQSLHGVHKVKDTTTLQQHLVDGRDMIIIRMPKDFPPFPQKLKFREPQREERICLVTTNFQTKSMSSMVSDTSCTFPSGDGIFWKHWIQTKDGQCGSPLVSTRDGFIVGIHSASNFTNTNNYFTSVPKNFMELLTNQEAQQWVSGWRLNADSVLWGGHKVFMVKPEEPFQPVKEATQL [F65H]	0.0604		0.0568	0.0777	0.0564	0.0551				0.0601		0.0808		0.0425	0.0795	0.0448	0.0542	0.123	0.0059
